The supplement of paper PMC3334620
In all, about 33,000 sequences were measured (“E-score (-0.5 to 0.5)”: median about -0.036, highest 2% from about 0.37 on). The list shows a part of the results.

target: T1, Yer064c (UniProt P40041); assay: PBM E-score (8-mer binding enrichment) (E-score (-0.5 to 0.5)); higher = stronger / more preferred TF binding; most listed sequences are background and not binding sites; conditions: protein concentration: 200 nM; construct: GST-full length
T1 sequence: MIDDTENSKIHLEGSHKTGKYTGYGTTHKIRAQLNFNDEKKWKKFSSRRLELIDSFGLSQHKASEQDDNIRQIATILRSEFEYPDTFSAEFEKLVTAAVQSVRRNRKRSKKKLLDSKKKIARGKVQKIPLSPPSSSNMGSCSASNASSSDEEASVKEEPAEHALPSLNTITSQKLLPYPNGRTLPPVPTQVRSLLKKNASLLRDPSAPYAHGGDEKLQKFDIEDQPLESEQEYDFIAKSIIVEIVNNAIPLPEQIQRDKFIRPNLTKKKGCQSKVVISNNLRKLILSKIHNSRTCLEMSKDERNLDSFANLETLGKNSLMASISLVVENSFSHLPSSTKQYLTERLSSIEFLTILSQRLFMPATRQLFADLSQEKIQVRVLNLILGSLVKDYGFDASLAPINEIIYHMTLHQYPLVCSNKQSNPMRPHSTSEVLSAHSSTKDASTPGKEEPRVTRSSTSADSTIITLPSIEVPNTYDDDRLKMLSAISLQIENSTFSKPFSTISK
Procedure, shortened: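 GST-tagged yeast TFs (full-length or DNA-binding domain) were made by PURExpress in vitro transcription/translation and applied at about 100-200 nM to universal all-10-mer Agilent arrays. The arrays were made double-stranded by primer extension, on fresh or once-stripped slides. Bound protein was detected with fluorescent anti-GST, and scans were normalised with masliner. Each ungapped eight-base word, pooled with its reverse complement, received an E-score (modified Wilcoxon-Mann-Whitney statistic) from the Universal PBM Analysis Suite.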

Sequence	PBM E-score
AGACGTCT	-0.229
AAATGTGT	0.197
AAATTCAC	-0.131
AGTTCGAG	0.00281
CACCGAAG	0.137
ATGATCCC	0.0441
GGCTAAAC	0.14
TGGTTGAA	-0.0755
GATAAATA	0.0251
GGATTATA	0.0308
GGGCGCAA	-0.27
AACGTCAC	-0.0191
ATCATGCG	0.294
CGGAGCAC	-0.259
CGCAAGGC	-0.25
ATCCTACA	-0.106
CGCGGGTC	0.00647
ACGGGGAG	-0.0271
CGTAACAG	-0.159
ATTCAAAG	0.106
CCTTAGTA	-0.0218
CAACGACA	-0.00606
CAGACCTA	-0.0381
AACTCCGC	-0.0186
CTCGAAAA	-0.0314

Sequence	PBM E-score
CAAAAACG	0.0885
CAACCAAG	-0.0316
CGGGGGCA	-0.272
GAACGATA	-0.0837
ACATGAGC	0.046
AGATACCC	0.036
CGCTCATA	0.0583
AAGCCCGG	-0.22
GACGAATC	0.147
AGTAACAG	0.0438
AAACCCTA	-0.146
CAGACCCC	-0.331
ACCTCTGG	-0.155
GTGATAAC	-0.141
ACAAATCA	0.239
AGAGATGG	-0.121
CCCCAGGG	-0.175
TAGAGAGA	0.0957
GGATCACA	0.0846
GCGTCGCC	-0.296
CAATTGCC	-0.16
CACCGCCA	0.0383
CTCCAACC	-0.114
ATGCCCAC	-0.213
CGGTTCTA	0.00584

Sequence	PBM E-score
CTAGTCAA	0.383
GGGTAGAC	-0.0104
CGGCCAAG	-0.251
ACCATGAT	0.217
TTGGCAAA	0.124
TAATGGCA	-0.172
CTCTTGCA	0.00318
ATCTCACC	-0.0478
ACCTTGAC	0.0835
ACATCCTC	-0.0135
CGCTCGCC	-0.158
CTCCGCGA	0.0481
AGTCTCCA	0.27
GGTGTGTA	0.158
CTGTATTC	0.0937
GCTCAAGA	-0.0264
CCATTGCC	-0.138
CCGAATCC	-0.186
CCGATGAG	0.165
ACGCTAAT	0.0724
ACAGTGCT	-0.0394
ATCTCAAT	0.199
CAGGACGG	-0.187
AGTCACTG	0.457
CTCCTTAA	0.223

Sequence	PBM E-score
GGCTGGAC	-0.111
ATTTAAAC	0.181
ACGAACTC	0.124
ATATGTCG	0.0539
CGTGTTCA	0.103
GGTGGTGA	0.12
AATATACA	0.197
TAACCTTA	0.0118
ATGTCCCC	-0.0719
CACTCACC	0.207
AAGGCTCT	-0.308
AGTCCCCC	0.0093
AGAAGAAT	0.176
ATTACTTC	0.0758
CCTTTGGA	-0.121
CTCTTAAA	0.172
AGGATAGA	0.0149
AGATCCCC	-0.241
CCTAATCA	0.376
CTTATATC	-0.128
AGCCCATG	-0.0315
AGTCTCGG	0.215
ATGGCATA	-0.165
CGACTATA	0.374
ACACACGA	0.112

Sequence	PBM E-score
AGCCCTAA	-0.0734
CTATCCAC	-0.0341
ACTGGATC	-0.111
CGCCACTC	-0.189
CAGATCAG	0.0284
ATACTGCA	-0.0463
AAAGCGCC	-0.135
AAATGAAT	0.164
AGATAATA	0.0934
CGTTCCTA	-0.114
AAACGTGG	-0.088
AGAGAAAT	-0.178
GAGGTGCA	-0.0942
GCTCCTAA	-0.241
AGGATCCC	-0.289
GCAACTGA	0.0985
GCTCAGAA	0.0465
GTCGGAAC	-0.09
GGTCAAAC	-0.185
CCCTCGCA	-0.135
ACACGCAG	-0.0457
GGGATAAA	-0.0655
CCTTTTGC	-0.226
ACTTTAAG	0.162
GCATCCGC	-0.171

Sequence	PBM E-score
ACGCCTGC	-0.265
ATCGGCCC	-0.00527
CCTCACTA	-0.111
AAACAGAA	-0.0269
TATTAGGA	0.189
CTTCCAGA	-0.0775
AATTCCAA	-0.0347
CGGCGTAA	0.0756
CTCATACA	0.184
GCATGTGA	0.0949
GTCGCATA	0.268
ATGGGTCG	0.0389
GACATGCA	-0.115
CGACAGCA	-0.163
CGACCTTC	-0.201
AGGCCTTC	-0.231
ACCTGAGT	0.29
AGATACAG	-0.12
ACTGGCAG	0.00876
GATCTCGA	0.0378
AGGACGAT	0.149
GGACGGTA	-0.23
CGCGCATA	-0.123
CACGCGAC	-0.0364
AGGAACCG	-0.139

Sequence	PBM E-score
ATCGGAAT	0.0595
GCCTGTCA	-0.095
ACATAAGG	-0.0737
CCTCTGGA	-0.129
AACTGACG	-0.198
CCGTTCGC	-0.00342
AAGCAACC	-0.155
ACACCCTA	0.0696
CACATAAC	0.0804
AGTTGAAG	0.127
CCGCAGCC	-0.141
GGTTACTA	-0.0192
AACACATC	0.206
AGAGCGCT	-0.188
ATCCGACG	0.0248
CCTTTAAA	-0.203
GCGACGAA	-0.0428
ACGTAAAA	-0.0865
AAGCAATG	-0.0165
TAAGGCTA	0.0667
AAGAGATT	0.0324
ACCTTACA	0.00881
